# Source: the supplement of paper PMC10126150
# Values marked as one replicate rest on one cluster of the flow cell; about a third of the high ones do not repeat.
# Tested on: ATP
# Test: switch fluorescence ratio, 500 uM ATP over buffer (Cy3 cluster intensity, sum of 5 cycles each) (fold (ratio)); higher = stronger signal-on switching upon ATP binding; sequences stand for … in TCGTCGGCAGCGTCAGATGTGTATAAGAGACAGTTTTTTTTTTTTTTTTTTTTTTTTT…TC
# Settings: aptamer strand: ATP DNA aptamer (quencher-CACCTGGGGGAGTATTGCGGAGGAAGG + anchor), 100 nM annealed; ATP concentration: 500 uM; one replicate
# Summary of the method: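 Cy3-labelled switching-strand clusters on a modified Illumina MiSeq flow-cell were annealed to 100 nM quencher-labelled ATP aptamer and imaged first in selection buffer, then after 15 min with 500 uM ATP at 22 °C. NaOH stripping and re-annealing separated each of five buffer/ATP cycles, and clusters outside 100-1000 RFU were excluded. The fluorescence ratio sums target-cycle Cy3 intensity over buffer-cycle Cy3 intensity per cluster and averages it per switch-domain sequence.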
# 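Also: ATP exposure 15 min at 22 °C before imaging.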
row,Sequence,switch fluorescence ratio
1,CGGACTGAAG,0.959
2,CGGAGAACGG,1.07
3,CGGAGACTGC,1.05
4,CGGAGATACC,1.04
5,CGGAGCTGAG,2.15
6,CGGAGGATCT,1.01
7,CGGAGGGGTT,1
8,CGGAGTAGTT,1.08
9,CGGAGTGGTG,0.962
10,CGGAGTTCCC,1.02
11,CGGATGTTTG,1.03
12,CGGATTGAGA,1
13,CGGATTTGCT,0.957
14,CGGATTTGGT,1.02
15,CGGCAACGAG,1
16,CGGCAAGTTG,0.963
17,CGGCAATCTT,2.29
18,CGGCACAACC,1.07
19,CGGCACAAGG,1.01
20,CGGCACAGAC,2.39
21,CGGCACAGAG,1.05
22,CGGCACAGGG,1.15
23,CGGCACCTCG,0.99
24,CGGCACTTTT,1.01
25,CGGCATAAGG,0.999
26,CGGCATTACC,2.63

row,Sequence,switch fluorescence ratio
1,CGGCCCATGC,1.16
2,CGGCCCCTGG,1.16
3,CGGCCCGGGG,1.05
4,CGGCCCTTGC,1.06
5,CGGCCGACAT,1.01
6,CGGCCGAGAC,1.09
7,CGGCCGCATG,0.981
8,CGGCCTTCGC,1.34
9,CGGCCTTTAC,1.87
10,CGGCGAAAGA,1.03
11,CGGCGAACAC,1.1
12,CGGCGACTG,0.989
13,CGGCGATGGC,1.05
14,CGGCGCGGCC,1.03
15,CGGCGGCTCG,0.973
16,CGGCGGTGAG,0.982
17,CGGCGTTTTT,1.04
18,CGGCTAAGTT,0.96
19,CGGCTAATTT,1.02
20,CGGCTAGTCA,1.02
21,CGGCTAGTTG,1.02
22,CGGCTATATT,1.02
23,CGGCTCAGGT,1.03
24,CGGCTCTAGT,1.02
25,CGGCTGAGTG,1
26,CGGCTGATGA,0.957

row,Sequence,switch fluorescence ratio
1,CGGCTGCTTG,1.01
2,CGGCTGGCAG,0.974
3,CGGCTGTTGA,0.968
4,CGGCTTCATA,0.999
5,CGGCTTCCGG,1.02
6,CGGCTTCTGA,1.02
7,CGGCTTGGGT,0.955
8,CGGCTTTTCC,1
9,CGGGACAACC,1.04
10,CGGGACCGCT,0.996
11,CGGGACGTTA,0.941
12,CGGGACTCGT,0.98
13,CGGGAGGAA,1.02
14,CGGGATATAC,2.26
15,CGGGATCGCC,0.924
16,CGGGATCT,0.967
17,CGGGCAACG,1.01
18,CGGGCAAGGC,1.01
19,CGGGCCCCC,0.98
20,CGGGCCGCAA,5.6
21,CGGGCGCAG,1.01
22,CGGGCGTTGA,0.947
23,CGGGGAATCT,1.05
24,CGGGGCAATT,1.49
25,CGGGGCGCCG,0.984
26,CGGGGCGGAC,1.06

row,Sequence,switch fluorescence ratio
1,CGGGGCTACG,1.01
2,CGGGGCTGTT,1.04
3,CGGGGGCGTG,0.931
4,CGGGGTAAGC,1.04
5,CGGGGTAATA,2.46
6,CGGGGTCGAA,1
7,CGGGGTGACC,0.985
8,CGGGGTGTG,0.981
9,CGGGTAACAG,0.989
10,CGGGTACTTA,1.03
11,CGGGTAGGAG,0.993
12,CGGGTCACAA,1.01
13,CGGGTCAGC,0.964
14,CGGGTCAGGC,0.999
15,CGGGTCAGTC,1.06
16,CGGGTCATTA,1.01
17,CGGGTCGCGT,0.996
18,CGGGTCGGCT,0.959
19,CGGGTCTATG,0.978
20,CGGGTCTGCG,0.989
21,CGGGTGGCTT,1.02
22,CGGTAAATAT,1.02
23,CGGTAACGGC,0.976
24,CGGTAACGGT,1.02
25,CGGTAGCTTT,1.12
26,CGGTATGAAG,0.967

row,Sequence,switch fluorescence ratio
1,CGGTATTATT,0.992
2,CGGTCAAAAT,0.997
3,CGGTCACCCA,1.02
4,CGGTCAGCCA,1
5,CGGTCCTTCC,1.33
6,CGGTCTCCGC,1.87
7,CGGTCTCTAT,0.992
8,CGGTGAAACT,1
9,CGGTGAGGG,1.02
10,CGGTGAGTAC,0.992
11,CGGTGATGTC,1.08
12,CGGTGGATTG,1.02
13,CGGTGGCTGT,1.01
14,CGGTGTAATG,0.951
15,CGGTGTAGCG,1.01
16,CGGTGTAGTG,0.999
17,CGGTGTATG,0.939
18,CGGTGTGGTC,0.969
19,CGGTGTTAGG,0.982
20,CGGTTAATGC,1.45
21,CGGTTACAAC,1.03
22,CGGTTACGGG,0.985
23,CGGTTAGATT,0.984
24,CGGTTATACC,0.95
25,CGGTTATATT,0.994
26,CGGTTCGAAC,0.972

row,Sequence,switch fluorescence ratio
1,CGGTTGACAG,1.02
2,CGGTTGAGCA,1.05
3,CGGTTGCCGT,1.01
4,CGGTTTAGC,1.04
5,CGGTTTCCGA,0.984
6,CGGTTTTCTC,0.99
7,CGGTTTTGA,1.02
8,CGTAAAGCCG,0.943
9,CGTAAAGGTT,1.01
10,CGTAAATTTT,1.01
11,CGTAACTACG,1.04
12,CGTAACTGCG,0.981
13,CGTAAGACCG,1.05
14,CGTAAGATGC,1.06
15,CGTAAGCGC,1.15
16,CGTAAGGTCT,1.03
17,CGTAAGTCGG,0.887
18,CGTAATGGAG,1.04
19,CGTACAAGTA,1.04
20,CGTACAGGTT,1.04
21,CGTACCGTAC,1.18
22,CGTACGACCG,0.956
23,CGTACGACGG,1.02
